Among the data in PubChem BioAssay AID1956 (SRMLSC, 2009) are fold increase and viability values, retold here.

The list shows a part of the results. Further columns of the screen follow, without active or inactive calls.

This test is described as follows: compounds boosting herpes simplex virus growth – fold increase, host cell viability (AID 1956). Further: tested in PC3 cells. The note with it: HSV replication augmentation in cells; fold increase: measured here: primary screen fold increase 10 uM, at 10 µM, stronger effect = higher value; viability: measured here: host cell viability series, at 25 µM, stronger effect = lower value.
`c1ccc(C[n+]2c(-c3ccccc3)csc2Nc2ccccc2)cc1`: the fold increase amounted to 1.32. On the same count and under the same terms, in the case of `CCN1/C(=C\C=C(C(C)=O)C(C)=O)Sc2ccccc21` it was 3.28. For the compound `CCCC1=NN2C(=N)/C(=C\c3ccc(SCc4ccco4)o3)C(=O)N=C2S1`, the fold increase was determined as 2.41 and the viability (usually a read-out of living cells in per cent, often relative to untreated cells) is 94.2%. Regarding `Cc1cccc(NC(=S)NNC(=O)c2cccc([N+](=O)[O-])c2)c1`, the fold increase was 1.51 and the viability was found to be 97.7%.

The compound `COc1ccc(C2CC(c3ccccc3)=NN2c2ccc(/C=N/NC(=O)c3ccncc3)cc2)cc1` (stereo not given) displayed a fold increase of 1.13.

For the compound `CC(=O)/C(C#N)=C1\NC(=O)C(Cc2ccccc2)S1` (stereo not given), the fold increase came out at 1.24 and the viability came out at 82.7%.

As for `CCC(C)N1C(=O)/C(=C/c2c(NCCCOC(C)C)nc3c(C)cccn3c2=O)SC1=S` (stereo not given), the fold increase came out at 6.27 and the viability was 86.5%.

On to `CCOC(=O)/C(=C/C=C1\Sc2cc(C)c(C)cc2N1CC)C(C)=O`, for which the fold increase is 5.63 and the viability turned out to be 80.2%.

Compound `CCOCCCNc1nc2c(C)cccn2c(=O)c1/C=C1\SC(=S)N(C(C)CC)C1=O` (stereo not given) gave a fold increase of 8.98.

For `CCN=C1S/C(=C\c2cc(OCC)c(O)cc2Br)C(=O)N1CC`, the fold increase is 1.55 and the viability came out at 64.4%. As for `COc1ccc(-n2c(C)cc(/C=C3\SC(=S)N(Cc4ccco4)C3=O)c2C)cc1`, the fold increase turned out to be 1.51 and the viability amounted to 97.6%. For `COc1ccc(O)c(C(=O)c2cc(C#N)c(=O)n(-c3ccc(Cl)cc3)c2)c1` the same measures were 2.8 and 87.1%. On the same counts, the results for `CN(C)c1ccc(/C=C(\C#N)C(=O)Nc2nc3c(s2)CCN(Cc2ccccc2)C3)cc1` are 4.61 and 94.7%.

For the compound `CCCCCCn1cnc2c(c1=O)c1nc3ccccc3nc1n2Cc1cccs1`, the fold increase came out at 1.16.

On to `CC(C)(C)C(=O)N=C1SC2CS(=O)(=O)CC2N1c1ccc2c(c1)OCO2` (stereo not given), for which the fold increase was determined as 1.34 and the viability amounted to 91%.

For `O=C(CC1Nc2ccccc2NC1=O)Nc1ccccc1NC(=O)CC1Nc2ccccc2NC1=O` (stereo not given), the fold increase came out at 1.8 and the viability turned out to be 96.5%. Turning to `O=C(O)CCCCCN1C(=O)/C(=C\c2ccc(-c3ccc(Cl)cc3)o2)SC1=S`, the fold increase stood at 1.98.

For `COc1ccccc1C1C([N+](=O)[O-])=CC([N+](=O)[O-])=CN1C` (stereo not given), the fold increase was 1.59 and the viability was 85.5%. For `O=C(c1ccc2c(c1)OCCO2)C1CCN(C(=O)c2ccc(F)c(F)c2)CC1` the same measures were 1.45 and 80.9%.

Regarding `O=C1NCC(c2ccccc2)C1C(=O)N/N=C\c1ccc(-c2ccc(Cl)c(Cl)c2)o1` (stereo not given), the fold increase turned out to be 1.12. Still for that read-out and setting: for `Cc1cc(C)cc(-n2c(N)c(C(=O)Nc3c(C)n(C)n(-c4ccccc4)c3=O)c3nc4ccccc4nc32)c1` the value was 1.4. As for `O=C(O)CN1C(=O)/C(=C\c2cn(CC(=O)N3CCOCC3)c3ccccc23)SC1=S`, the fold increase is 4.5 and the viability is 96.3%. On the same counts, the results for `O=[N+]([O-])c1ccc(S(=O)(=O)N2CCSC2c2ccco2)cc1` (stereo not given) are 1.41 and 101%. On the same counts, the results for `C=CCSc1nnc(-c2c[nH]c3ccccc23)n1CCOC` are 1.37 and 93.1%.
